Test results reported in article PMC3407085.
Results are given in words; binding and its absence hold for the method and conditions named. Binding seen in cells or lysates may run through a third protein. Some entries that bind do so weakly or less than the wild type. For part of these data: Sequences can lack the tags named with a protein.

How the values were obtained:
GST-ARNT = GST-ARNT (UniProt P27540); test: pull-down; GST fusion proteins immobilised on beads; proteins captured from whole lymphoblastoid cell lysates; Western blotting; only the target purified
GST-HIF1A = GST-HIF1A (UniProt Q16665); test: as above
[1] = target: T1, EBNA-3 (endogenous in lymphoblastoid cells) (Epstein-Barr virus (B95.8 strain, expressed in LCLs)) (UniProt P12977); test: co-IP; anti-EBNA-3 or anti-EBNA-5 antibodies coupled to CNBr-Sepharose; whole cell lysates of 10^7 lymphoblastoid cells; washed with NP40 lysis buffer and PBS; Western blotting
T1 sequence: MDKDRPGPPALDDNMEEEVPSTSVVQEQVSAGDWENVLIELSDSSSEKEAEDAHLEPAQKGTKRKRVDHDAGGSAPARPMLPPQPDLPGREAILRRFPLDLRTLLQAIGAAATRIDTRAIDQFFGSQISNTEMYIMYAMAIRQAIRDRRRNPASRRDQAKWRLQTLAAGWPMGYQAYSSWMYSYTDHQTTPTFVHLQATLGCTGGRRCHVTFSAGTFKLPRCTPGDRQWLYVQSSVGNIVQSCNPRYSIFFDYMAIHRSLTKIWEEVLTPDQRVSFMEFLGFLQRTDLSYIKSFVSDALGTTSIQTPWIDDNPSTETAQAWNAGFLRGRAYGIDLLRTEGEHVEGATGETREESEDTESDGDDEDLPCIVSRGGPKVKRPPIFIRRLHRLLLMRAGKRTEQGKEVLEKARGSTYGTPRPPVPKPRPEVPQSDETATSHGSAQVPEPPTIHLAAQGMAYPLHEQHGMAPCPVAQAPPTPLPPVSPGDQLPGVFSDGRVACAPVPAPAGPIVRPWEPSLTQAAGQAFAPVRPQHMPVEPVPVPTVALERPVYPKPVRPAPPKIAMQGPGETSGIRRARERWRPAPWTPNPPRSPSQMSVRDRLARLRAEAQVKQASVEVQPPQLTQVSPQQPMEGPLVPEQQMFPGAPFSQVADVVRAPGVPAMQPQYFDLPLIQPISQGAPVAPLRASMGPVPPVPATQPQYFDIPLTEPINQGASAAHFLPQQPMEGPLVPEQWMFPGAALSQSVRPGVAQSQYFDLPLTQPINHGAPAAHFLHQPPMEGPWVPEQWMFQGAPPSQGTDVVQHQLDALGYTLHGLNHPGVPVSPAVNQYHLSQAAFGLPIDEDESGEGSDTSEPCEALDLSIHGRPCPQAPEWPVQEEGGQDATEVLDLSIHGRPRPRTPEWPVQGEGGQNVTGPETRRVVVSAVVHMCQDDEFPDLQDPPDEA

[2] = target: T2, EBNA-5 (endogenous in lymphoblastoid cells) (Epstein-Barr virus (B95.8 strain, expressed in LCLs)) (UniProt Q8AZK7); test: as above
T2 sequence: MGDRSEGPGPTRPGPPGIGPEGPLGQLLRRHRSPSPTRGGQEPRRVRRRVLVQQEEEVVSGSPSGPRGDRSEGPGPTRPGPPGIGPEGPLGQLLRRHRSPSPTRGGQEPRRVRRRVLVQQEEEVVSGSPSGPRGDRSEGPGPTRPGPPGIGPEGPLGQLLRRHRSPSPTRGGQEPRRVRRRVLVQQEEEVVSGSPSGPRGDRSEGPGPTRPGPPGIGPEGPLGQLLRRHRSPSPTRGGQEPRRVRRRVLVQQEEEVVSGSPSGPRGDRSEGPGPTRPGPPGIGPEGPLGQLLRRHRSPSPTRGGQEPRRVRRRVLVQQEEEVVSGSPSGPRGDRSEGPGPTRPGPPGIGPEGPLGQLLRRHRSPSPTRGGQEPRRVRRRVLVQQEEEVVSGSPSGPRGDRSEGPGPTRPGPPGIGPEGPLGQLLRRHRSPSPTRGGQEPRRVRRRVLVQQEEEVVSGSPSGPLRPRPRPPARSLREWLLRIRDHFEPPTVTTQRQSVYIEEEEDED

[3] = target: T3, GST-EBNA-3 (Epstein-Barr virus) (UniProt P12977); test: pull-down; GST fusion proteins immobilised on beads; proteins captured from whole lymphoblastoid cell lysates; Western blotting; only the target purified
T3 sequence: T1 sequence

EBNA-6 (endogenous in lymphoblastoid cells) (from UniProt P03204 1-992)
binding (GST-ARNT): no binding
binding (GST-HIF1A): no binding

HIF1A (endogenous in lymphoblastoid cells) (from UniProt Q16665-1 1-826)
binding [1]: binds
binding [2]: no binding

prolylhydroxylase 1 (endogenous in lymphoblastoid cells) (from UniProt Q96KS0-1 1-407) (enzyme)
binding [3]: binds weakly

prolylhydroxylase 2 (endogenous in lymphoblastoid cells) (from UniProt Q9GZT9-1 1-426) (enzyme)
binding [3]: binds
